From patent US20150197550A1 (UNIVERSITY OF ULSTER, priority 2012, published 2015)
Part of at least one peptide drawing is inferred or uncertain, most often the ends. Some entries repeat one wording, which the source may state once for all of them. Square brackets hold non-standard residues; d marks the D form. Peptide text beside a SMILES is read from it.

Key:
[1] = system: Swiss NIH mice; assay: Acute glucose tolerance test in Swiss NIH mice; type: in vivo, mouse; conditions: 25 nmol/kg body weight i.p. with glucose 18 mmol/kg
[2] = target: T1, GIP receptor (Rattus norvegicus, UniProt P43219); assay: Competition with GIPR antagonist (Pro^3) GIP on insulin secretion from BRIN-BD11 cells; type: cell-based; conditions: agonist fixed at 10^-7 M, 5.6 mM glucose, 20 min
T1 construct: The pancreatic BRIN-BD11 cell line was used to perform in vitro studies; endogenous in cells; host or cells: BRIN-BD11 clonal rat pancreatic beta cells
T1 sequence (P43219 19-455): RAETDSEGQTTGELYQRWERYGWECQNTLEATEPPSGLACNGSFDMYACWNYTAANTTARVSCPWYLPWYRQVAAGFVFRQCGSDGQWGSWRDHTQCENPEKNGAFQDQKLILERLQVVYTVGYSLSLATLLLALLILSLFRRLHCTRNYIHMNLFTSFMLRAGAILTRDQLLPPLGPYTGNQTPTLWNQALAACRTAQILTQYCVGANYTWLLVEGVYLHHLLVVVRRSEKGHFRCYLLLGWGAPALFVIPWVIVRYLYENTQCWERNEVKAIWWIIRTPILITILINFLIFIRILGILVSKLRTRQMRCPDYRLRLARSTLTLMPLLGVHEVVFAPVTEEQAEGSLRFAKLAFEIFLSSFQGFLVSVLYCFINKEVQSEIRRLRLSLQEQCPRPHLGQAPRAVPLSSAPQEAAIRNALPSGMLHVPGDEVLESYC

[3] = system: GLP-1R-KO mice; assay: Acute glucose tolerance in GLP-1R-KO mice; type: in vivo, mouse; conditions: 25 nmol/kg i.p. with glucose 18 mmol/kg
[4] = system: GIPR-KO mice; assay: Acute glucose tolerance in GIPR-KO mice; type: in vivo, mouse; conditions: 25 nmol/kg i.p. with glucose 18 mmol/kg
[5] = system: C57 control mice; assay: Acute glucose tolerance in C57 control mice; type: in vivo, mouse; conditions: 25 nmol/kg i.p. with glucose 18 mmol/kg
[6] = system: BRIN-BD11 cells; assay: Acute insulin secretion from BRIN-BD11 clonal β cells, insulin by radioimmunoassay; type: cell-based, rat; conditions: 5.6 mM glucose, 20 min, 10^-12 to 10^-6 M; compared with 5.6 mM glucose alone
[7] = target: T2, glucagon receptor (Rattus norvegicus, UniProt P30082); assay: Competition with GCGR antagonist (desHis^1)(Pro^4) glucagon on insulin secretion from BRIN-BD11 cells; type: cell-based; conditions: agonist fixed at 10^-7 M, 5.6 mM glucose, 20 min
T2 construct: The pancreatic BRIN-BD11 cell line was used to perform in vitro studies; endogenous in cells; host or cells: BRIN-BD11 clonal rat pancreatic beta cells

[8] = system: high-fat fed NIH Swiss mice; assay: Chronic 28 day study in high-fat fed NIH Swiss mice (dietary induced obesity-diabetes); type: in vivo, mouse
[9] = target: T3, GLP-1 receptor (Rattus norvegicus, UniProt P32301); assay: Competition with GLP-1R antagonist Exendin-4(9-39) on insulin secretion from BRIN-BD11 cells; type: cell-based; conditions: agonist fixed at 10^-7 M, 5.6 mM glucose, 20 min
T3 construct: The pancreatic BRIN-BD11 cell line was used to perform in vitro studies; endogenous in cells; host or cells: BRIN-BD11 clonal rat pancreatic beta cells
T3 sequence (P32301 22-463): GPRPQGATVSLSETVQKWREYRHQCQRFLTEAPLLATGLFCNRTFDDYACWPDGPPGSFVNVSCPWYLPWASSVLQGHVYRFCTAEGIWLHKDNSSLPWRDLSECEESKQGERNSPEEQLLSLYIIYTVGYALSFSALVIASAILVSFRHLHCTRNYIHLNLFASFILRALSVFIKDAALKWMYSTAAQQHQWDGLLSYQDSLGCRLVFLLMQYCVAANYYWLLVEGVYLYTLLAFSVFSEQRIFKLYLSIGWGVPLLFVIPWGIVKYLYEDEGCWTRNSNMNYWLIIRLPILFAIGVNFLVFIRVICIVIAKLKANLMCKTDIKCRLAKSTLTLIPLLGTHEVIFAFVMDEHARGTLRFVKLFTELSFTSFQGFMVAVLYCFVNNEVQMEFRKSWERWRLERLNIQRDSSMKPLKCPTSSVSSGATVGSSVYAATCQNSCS

[10] = target: human GCGR (Homo sapiens, UniProt P47871); assay: Stated action at human GCGR (inventors' summary)
[11] = target: T4, human GIPR (Homo sapiens, UniProt P48546); assay: Stated action at human GIPR (inventors' summary)
T4 sequence (P48546 22-466): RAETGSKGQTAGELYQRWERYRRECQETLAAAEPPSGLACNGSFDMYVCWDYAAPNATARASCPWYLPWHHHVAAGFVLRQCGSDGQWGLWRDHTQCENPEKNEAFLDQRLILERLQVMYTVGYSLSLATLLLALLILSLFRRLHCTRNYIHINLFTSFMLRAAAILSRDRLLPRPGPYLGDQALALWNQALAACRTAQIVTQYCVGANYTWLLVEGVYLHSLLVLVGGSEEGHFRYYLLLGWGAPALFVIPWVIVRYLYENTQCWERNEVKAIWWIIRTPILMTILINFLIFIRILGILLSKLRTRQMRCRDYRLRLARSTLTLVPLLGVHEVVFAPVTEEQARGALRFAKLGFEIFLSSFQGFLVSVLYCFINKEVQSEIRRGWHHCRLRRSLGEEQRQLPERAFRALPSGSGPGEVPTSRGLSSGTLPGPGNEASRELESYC

[12] = after 28 days treatment, 18 h fast, 15 min feeding

T2 sequence (P30082 27-485): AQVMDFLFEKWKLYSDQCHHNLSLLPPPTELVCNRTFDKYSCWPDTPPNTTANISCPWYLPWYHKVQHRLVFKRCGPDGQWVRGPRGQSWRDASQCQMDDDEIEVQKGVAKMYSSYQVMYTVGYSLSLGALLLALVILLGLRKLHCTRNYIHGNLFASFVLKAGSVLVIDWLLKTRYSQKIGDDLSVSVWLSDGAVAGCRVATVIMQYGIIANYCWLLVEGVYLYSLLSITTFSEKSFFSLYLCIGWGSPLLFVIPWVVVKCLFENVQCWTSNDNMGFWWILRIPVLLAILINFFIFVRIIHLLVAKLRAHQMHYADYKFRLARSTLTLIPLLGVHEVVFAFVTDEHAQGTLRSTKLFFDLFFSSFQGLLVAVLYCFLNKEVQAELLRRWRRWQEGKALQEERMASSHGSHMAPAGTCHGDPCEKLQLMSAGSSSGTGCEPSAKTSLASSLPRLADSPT
Chain of human GCGR (P47871 26-477): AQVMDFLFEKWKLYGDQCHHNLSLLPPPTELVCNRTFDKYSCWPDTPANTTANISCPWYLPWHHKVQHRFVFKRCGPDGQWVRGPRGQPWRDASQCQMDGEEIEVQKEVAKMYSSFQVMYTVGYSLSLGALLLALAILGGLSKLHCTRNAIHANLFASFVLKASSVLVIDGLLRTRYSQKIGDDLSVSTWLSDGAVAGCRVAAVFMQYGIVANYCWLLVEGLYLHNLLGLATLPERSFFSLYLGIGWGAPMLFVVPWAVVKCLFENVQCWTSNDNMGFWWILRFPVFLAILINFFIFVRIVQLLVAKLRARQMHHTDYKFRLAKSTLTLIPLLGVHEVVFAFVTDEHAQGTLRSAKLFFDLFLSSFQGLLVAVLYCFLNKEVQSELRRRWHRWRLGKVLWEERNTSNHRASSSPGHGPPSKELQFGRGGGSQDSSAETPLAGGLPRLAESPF

| SMILES | blood glucose compared to glucose alone [1] | effect of increasing concentrations of (Pro^3) GIP on insulin secretion by the agonist [2] | blood glucose compared to glucose alone [3] | blood glucose compared to glucose alone [4] | blood glucose compared to glucose alone [5] | insulin secretion [6] | effect of increasing concentrations of (desHis^1)(Pro^4) glucagon on insulin secretion by the agonist [7] | blood glucose over 60 min in response to feeding [8, 12] | plasma insulin levels in response to feeding [8, 12] | glycaemic response at 15, 30 and 60 min post i.p. glucose load ([8]; after 28 days treatment, compared to high-fat fed controls) | overall glycaemic excursion post glucose load ([8]; after 28 days treatment, compared to high-fat saline controls) | overall plasma insulin release post-glucose load ([8]; after 28 days treatment, compared with high-fat saline controls) | overall basal plasma insulin levels (peptide desensitisation test) ([8]; after 28 days treatment, compared with saline controls) | non-fasted blood glucose ([8]; twice daily i.p. 25 nmol/kg bw, 28 days) | effect of increasing concentrations of Exendin-4(9-39) on insulin secretion by the agonist [9] | action at human GCGR [10] | action at human GIPR [11] |
| --- | --- | --- | --- | --- | --- | --- | --- | --- | --- | --- | --- | --- | --- | --- | --- | --- | --- |
| CSCC[C@H](NC(=O)[C@H](Cc1ccc(O)cc1)NC(=O)[C@H](CCCCN)NC(=O)[C@H](CO)NC(=O)[C@H](Cc1ccc(O)cc1)NC(=O)[C@H](CC(=O)O)NC(=O)[C@H](CO)NC(=O)[C@@H](NC(=O)[C@H](Cc1ccccc1)NC(=O)[C@@H](NC(=O)CNC(=O)[C@H](CCC(=O)O)NC(=O)[C@@H](C)NC(=O)[C@@H](N)Cc1c[nH]cn1)[C@@H](C)O)[C@@H](C)O)C(=O)N[C@@H](CC(=O)O)C(=O)N[C@@H](CC(N)=O)C(=O)N[C@@H](CCCNC(=N)N)C(=O)N[C@@H](CCCNC(=N)N)C(=O)N[C@@H](C)C(=O)N[C@@H](CCCCN)C(=O)N[C@@H](CC(=O)O)C(=O)N[C@@H](Cc1ccccc1)C(=O)N[C@H](C(=O)N[C@@H](CCC(N)=O)C(=O)N[C@@H](Cc1c[nH]c2ccccc12)C(=O)N[C@@H](CC(C)C)C(=O)N[C@@H](CCSC)C(=O)N[C@@H](CC(N)=O)C(=O)N[C@H](C(=O)O)[C@@H](C)O)C(C)C [(D-Ala^2) dogfish glucagon, (D-A^2) dogfish glucagon] (H-H[dA]EGTFTSDYSKYMDNRRAKDFVQWLMNT-OH; N-terminus and C-terminus assumed) | significantly reduced blood glucose | no effect | no significant difference | An effect was observed | An effect was observed | significantly stimulated insulin secretion | no effect | progressive decline | increased over time | significantly improved | significantly lowered | significantly increased | significantly increased | progressive decline | lowering the insulin-secreting capability of the agonist |  |  |
| CSCC[C@H](NC(=O)[C@H](Cc1ccc(O)cc1)NC(=O)[C@H](CCCCN)NC(=O)[C@H](CO)NC(=O)[C@H](Cc1ccc(O)cc1)NC(=O)[C@H](CC(=O)O)NC(=O)[C@H](CO)NC(=O)[C@@H](NC(=O)[C@H](Cc1ccccc1)NC(=O)[C@@H](NC(=O)CNC(=O)[C@H](CCC(=O)O)NC(=O)[C@H](CO)NC(=O)[C@@H](N)Cc1c[nH]cn1)[C@@H](C)O)[C@@H](C)O)C(=O)N[C@@H](CC(=O)O)C(=O)N[C@@H](CC(N)=O)C(=O)N[C@@H](CCCNC(=N)N)C(=O)N[C@@H](CCCNC(=N)N)C(=O)N[C@@H](C)C(=O)N[C@@H](CCCCN)C(=O)N[C@@H](CC(=O)O)C(=O)N[C@@H](Cc1ccccc1)C(=O)N[C@H](C(=O)N[C@@H](CCC(N)=O)C(=O)N[C@@H](Cc1c[nH]c2ccccc12)C(=O)N[C@@H](CC(C)C)C(=O)N[C@@H](CCSC)C(=O)N[C@@H](CC(N)=O)C(=O)N[C@H](C(=O)O)[C@@H](C)O)C(C)C [dogfish glucagon, Dogfish glucagon (1-29)] (H-HSEGTFTSDYSKYMDNRRAKDFVQWLMNT-OH; N-terminus and C-terminus assumed) | significantly reduced blood glucose |  | significantly lowered glucose | no glucose-lowering effects | significantly lowered glucose | significantly stimulated insulin secretion |  |  |  |  |  |  |  |  |  | neither agonises nor antagonises | agonises |
